{
  "source": "paper PMC4336329",
  "about": "(PLoS ONE, 2015)",
  "note": "The whole screen tested about 310,000 compounds, of which about 14,000 (4.5%) showed an effect of 50% or more. Effects have a minus sign here. Some of the results follow.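 Note: peak tail current of the secondary pulse compared with the same well before compound.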",
  "data": [
    {"target": "human ether-à-go-go-related gene (hERG) potassium channel (human, UniProt Q12809)", "sequence (Q12809 whole entry, looked up)": "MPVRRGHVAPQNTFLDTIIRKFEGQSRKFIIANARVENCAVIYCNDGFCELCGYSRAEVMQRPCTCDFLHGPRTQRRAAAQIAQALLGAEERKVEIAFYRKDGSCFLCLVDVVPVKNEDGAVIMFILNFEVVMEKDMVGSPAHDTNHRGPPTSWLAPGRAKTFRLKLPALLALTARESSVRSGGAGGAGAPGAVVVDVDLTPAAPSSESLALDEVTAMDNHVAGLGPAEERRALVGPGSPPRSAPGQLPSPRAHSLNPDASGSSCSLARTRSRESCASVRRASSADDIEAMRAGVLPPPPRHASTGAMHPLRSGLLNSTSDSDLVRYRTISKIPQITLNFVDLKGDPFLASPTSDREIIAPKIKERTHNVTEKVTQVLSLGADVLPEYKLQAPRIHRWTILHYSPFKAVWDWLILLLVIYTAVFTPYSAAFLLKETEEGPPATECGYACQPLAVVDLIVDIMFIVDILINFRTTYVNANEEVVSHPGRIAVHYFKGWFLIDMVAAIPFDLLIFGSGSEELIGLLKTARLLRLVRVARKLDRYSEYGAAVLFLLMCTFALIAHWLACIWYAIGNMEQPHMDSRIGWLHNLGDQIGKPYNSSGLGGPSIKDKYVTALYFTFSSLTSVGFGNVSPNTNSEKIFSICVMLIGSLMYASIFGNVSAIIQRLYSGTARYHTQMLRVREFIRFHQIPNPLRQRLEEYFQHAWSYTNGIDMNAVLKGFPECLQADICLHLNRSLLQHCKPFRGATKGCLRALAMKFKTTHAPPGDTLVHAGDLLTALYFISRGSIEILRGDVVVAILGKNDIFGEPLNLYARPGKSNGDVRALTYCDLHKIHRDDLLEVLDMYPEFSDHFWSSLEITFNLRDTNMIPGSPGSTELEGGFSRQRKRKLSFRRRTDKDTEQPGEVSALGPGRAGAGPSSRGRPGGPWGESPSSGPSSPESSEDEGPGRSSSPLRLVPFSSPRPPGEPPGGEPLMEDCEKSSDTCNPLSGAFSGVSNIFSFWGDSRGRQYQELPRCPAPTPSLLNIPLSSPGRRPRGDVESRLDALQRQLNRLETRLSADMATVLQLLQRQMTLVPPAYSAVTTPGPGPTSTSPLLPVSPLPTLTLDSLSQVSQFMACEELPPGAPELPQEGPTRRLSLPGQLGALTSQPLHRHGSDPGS", "experiment": "primary screen, population patch clamp on CHO cells stably expressing hERG", "units": {"hERG current change (%, negative = inhibition) at 10uM": "%"}, "values": [
      {"smiles": "O=c1c2ccccc2cnn1Cc1n[nH]c(=S)n1-c1ccc(Cl)cc1", "hERG current change (%, negative = inhibition) at 10uM": 14.5},
      {"smiles": "CCOc1ccccc1NC(=O)c1nc(-c2ccccc2)oc1C", "hERG current change (%, negative = inhibition) at 10uM": 8.38},
      {"smiles": "COCCn1c(SCC(=O)Nc2cccc(F)c2)nc2c(c1=O)SCC2", "hERG current change (%, negative = inhibition) at 10uM": -10.8},
      {"smiles": "O=C1C2CC(O)CN2C(=O)N1c1ccccc1", "note": "(stereo not shown)", "hERG current change (%, negative = inhibition) at 10uM": 17},
      {"smiles": "O=c1[nH]c(=O)n(Cc2ccccc2)c(O)c1/C=C1\\C=Nc2ccccc21", "hERG current change (%, negative = inhibition) at 10uM": 4.57},
      {"smiles": "CCOC(=O)c1c(-c2cccc(C)c2)csc1NC(=O)c1c(-c2ccccc2)noc1C", "hERG current change (%, negative = inhibition) at 10uM": 3.63},
      {"smiles": "Cc1cccc(C(=O)Oc2ccccc2/C=N/NC(=O)c2ccc(NC(=O)C(C)(C)C)cc2)c1", "hERG current change (%, negative = inhibition) at 10uM": -4.88},
      {"smiles": "NNC(=O)[C@H](Cc1ccccc1)NC(=O)NCCc1ccccc1", "hERG current change (%, negative = inhibition) at 10uM": -2.34},
      {"smiles": "CCOC(=O)CSc1nc2cc(C(=O)NCC3CCCO3)ccc2c(=O)n1Cc1ccco1", "note": "(stereo not shown)", "hERG current change (%, negative = inhibition) at 10uM": -39.3},
      {"smiles": "CCCCCn1c(Sc2ccccc2)nc2c1c(=O)[nH]c(=O)n2C", "hERG current change (%, negative = inhibition) at 10uM": -4.78},
      {"smiles": "COc1ccccc1C(C)NCC(=O)Nc1c(F)cccc1F", "note": "(stereo not shown)", "hERG current change (%, negative = inhibition) at 10uM": 6.88},
      {"smiles": "COCCn1nnnc1C(c1ccc2ncccc2c1)N1CCc2ccccc21", "note": "(stereo not shown)", "hERG current change (%, negative = inhibition) at 10uM": -16.9},
      {"smiles": "O=C(O)CSCCC(=O)Nc1ccc(F)cc1", "hERG current change (%, negative = inhibition) at 10uM": -7.84},
      {"smiles": "O=C(Nc1nnc(-c2cccnc2)o1)c1cccc(Cl)c1", "hERG current change (%, negative = inhibition) at 10uM": -2.87},
      {"smiles": "Cc1ccccc1-n1c(SCC(=O)N2CCCC2)nnc1-c1ccccn1", "hERG current change (%, negative = inhibition) at 10uM": 16.1},
      {"smiles": "CSc1nc2oc3c(c2c2nncn12)CC(C)(C)SC3", "hERG current change (%, negative = inhibition) at 10uM": -0.476},
      {"smiles": "COc1cccc(S(=O)(=O)NCC(=O)N2CCCCCC2)c1", "hERG current change (%, negative = inhibition) at 10uM": 27.6},
      {"smiles": "Cc1ccc(NC(=O)Cc2ccc(Cl)cc2)cc1S(=O)(=O)N1CCCCCC1", "hERG current change (%, negative = inhibition) at 10uM": 2.51},
      {"smiles": "Cc1cc(C)nc(SCc2nnc(SCC(=O)Nc3ccccc3C)n2Cc2ccco2)n1", "hERG current change (%, negative = inhibition) at 10uM": -14},
      {"smiles": "CSc1nc(N(C)NC(=O)c2cccc(C)c2)c2ccccc2n1", "hERG current change (%, negative = inhibition) at 10uM": -25.7},
      {"smiles": "O=C(O)CCNC(=O)C12CC3CC(CC(C3)C1)C2", "hERG current change (%, negative = inhibition) at 10uM": 28.1},
      {"smiles": "O=C1C2C3C=CC(C3)C2C(=O)N1/N=C/c1ccc(-c2ccccc2[N+](=O)[O-])o1", "note": "(stereo not shown)", "hERG current change (%, negative = inhibition) at 10uM": -30.1},
      {"smiles": "CC(=O)N/N=C(\\C)C1COc2ccccc2O1", "note": "(stereo not shown)", "hERG current change (%, negative = inhibition) at 10uM": 10.9},
      {"smiles": "CCOc1ccc2[nH]c(=O)c(CN(CCN3CCOCC3)Cc3nnnn3C(C)(C)CC)cc2c1", "hERG current change (%, negative = inhibition) at 10uM": -6.85},
      {"smiles": "O=C1CNC(=O)c2c(nc3n2CCC3)N1", "hERG current change (%, negative = inhibition) at 10uM": -3.76}
    ]}
  ]
}
